# Measurements taken from the RNAGym collection of RNA variant scans (doi:10.7554/elife.90254).
# The source gives no read counts; variants with many changes may rest on few reads.
# B1: LINE1-mini (parent)
# chain: GGCAGAGCUCAACACAGCGUGGCAAAGUGGCUGUGGCUAGACUGCC
# Variants of: B1
# Test: self-cleavage, relative activity (ratio to wild type); higher = more cleavage; in vitro, sequencing; the parent is a self-cleaving ribozyme
row,Variant,self-cleavage
1,GGCAGACCUCAACACAGAGUUGCAAAGUGGCUGUGGCUAGACUCCC [G7C C18A G21U G44C],0.01
2,GGCAGACAUCAACACAGCGUGGCAAAGUUGCUGUGGCUAGACUGCC [G7C C8A G29U],0.34
3,GGGAGGGCUCAACACAGCGUGGCAAAGUGGCAGUGGCUAGACUGCU [C3G A6G U32A C46U],0.11
4,GGCAGAGAUUAACACAUCGUGGCAAAGUGGGGGUGGCUAGACUGCA [C8A C10U G17U C31G U32G C46A],0.08
5,GGCAGAGCUCAACACAACGUGGUAAAGUGGCUGUGGCUAGACUGUC [G17A C23U C45U],0.3
6,GGCAGAGCUCGACAAAUCGUGGCAAAGUGGCUGUGGCUAGACUGCC [A11G C15A G17U],0.03
7,GGAAUAGCUCAACACAGCGUGGUAACGUGUCUGUGGCUAGACUGCC [C3A G5U C23U A26C G30U],0.06
8,GGCAGGUCUUAACACAGCGUGGCAAAGUGGCUGUGGCUAGACAGCC [A6G G7U C10U U43A],0.01
9,GGUAGAGCUGAACACAGCGUGGCAAAGUGGCUGUGGCUACACUGCC [C3U C10G G40C],0.02
10,GGCAGAGCUCAUCAAAGCGUGGAAAAGUGGCUGUGGCUAGACUGUC [A12U C15A C23A C45U],0.08
11,GGCAGAGCUCAACACAGCGUAGCAAAGUGGCUCUGGCAAGACUGCC [G21A G33C U38A],0.05
12,GGCAGAGCUCCACACAUCGUGGCAAAGUGGCUGUGGCUAGGCUGUC [A11C G17U A41G C45U],0
13,UGCAGAGCUCAACACAGCGUGGCGAAGUCGCUGUGACUAGACUGCC [G1U A24G G29C G36A],0.04
14,GGCAGAGCUCAACUCAGCUUGGCAAAGUGGCUGUGGCUAGGCUGCC [A14U G19U A41G],0.02
15,GGCAGAGCUCAACACAGCGUGGCAAAGUGGCAGUUGCUAGAAAGCC [U32A G35U C42A U43A],0.02
16,GCCAGAGCUCACCACAGCGUUGCAAAGUGGCUGUGCCGAGACUGCC [G2C A12C G21U G36C U38G],0.13
17,GGCAGAGCUAAACACGGCGUGGCAAAGUGGCUGUCGCUAGACUGCC [C10A A16G G35C],0.04
18,GGCAGAGCUCAUCACAGCGUUGGAAAGUGGCUGUUGCUAGACUGCC [A12U G21U C23G G35U],0.09
19,GGCAGAGCUCAACACAGCGUGGGCAAGUGGCUGUGGCUAGAGUAGC [C23G A24C C42G G44A C45G],0.02

row,Variant,self-cleavage
1,GGCAGAGCUACACACACCGUGGCAAAGUGGCUGUGGCUAUACUACC [C10A A11C G17C G40U G44A],0.01
2,GGCAGAGCUGAACACAGCGUGGCAGAUUGGCUGUGGCUAGACUGCC [C10G A25G G27U],0.01
3,GGCAGAGCUAAACACAGCGGGACAAAGUGGCUGUGGCUAGACUGCC [C10A U20G G22A],0.04
4,GGCAGAGCUGAACACAACGCGUCAAAGUGGCUGUGGCUAGACUGCC [C10G G17A U20C G22U],0.54
5,GGCAGAGCUCGACACAGCGUGUCAAAGUGGUUGGGGCUAGACUGCC [A11G G22U C31U U34G],0.02
6,GGCAGAGCUCAACACCGAGUGGAAAAGUGGCUCUGGCUAGACUGCA [A16C C18A C23A G33C C46A],0.01
7,GGCAGAGCUCAACACAGCGUAGCAAAGUUGCUGUGGUUGGACUGCC [G21A G29U C37U A39G],0
8,CCCCGAGCUCAACACAGCGUGGCACAGUGGCUGUGGCUAGACUGCC [G1C G2C A4C A25C],0.04
9,GGCAGAGCUCAACAACGCGUGGCAAAAUGGCUGUGACUAGACUGCC [C15A A16C G27A G36A],0.22
10,GGCAGAGCGCAACACAUUGUGGCAAAGUGGCUGUGGCUAGACCGGC [U9G G17U C18U U43C C45G],0.05
11,GGCUAAGCUCAACACAGCGUCGCAAAGUGGCUGUGGCUAGACUGCC [A4U G5A G21C],0.27
12,GAUAGAGCUCUACACAGCGUGGCAAAGUGGCUGUGGCUAGACUGCC [G2A C3U A11U],0.08
13,GGCAGAGGUCAACACAGCGUGGCAAAGUGGCUGUGGCUAGAUUGCG [C8G C42U C46G],0.06
14,GGCAGAGCUCAACUCAGAGGGGCAAAGUGGCUGUGGCAAGACUGCC [A14U C18A U20G U38A],0.01
15,GCCAGAACUCCACACAGCGUGGCAAAGUGACUGUGGUUAGACUGCC [G2C G7A A11C G30A C37U],0
16,GGCAGAGCUCAACACAACGUGGCAAAGUGCCUGUGGCAAGACUGCC [G17A G30C U38A],0.22
17,GACAGAGCGCAACACAGCGUGGCAAAGUGGCUGUGGCGAGACUGCC [G2A U9G U38G],0.23
18,GGCAGAGCUCAACACAGCGUGGCAAAGUGGCUGUGGCUCGUUUGCC [A39C A41U C42U],0.24
19,GGCAGAGCUCAAAACAGCGUGGCAAAGUGGAUGUGUCUAGACUGCC [C13A C31A G36U],0.23

row,Variant,self-cleavage
1,GGCAGAGCUCAACACAGCGUGGCAAACUGGAUGUGGCUGGACUGCC [G27C C31A A39G],0.03
2,GACAGAGCCCAACACAGCGUGGCAAAGUGGUUGUGGCUAGACUGCC [G2A U9C C31U],0.04
3,GGCUGAGCUCAACACAGCGUGGCAAAGUGGCUGUGACUAGGCUGUC [A4U G36A A41G C45U],0.28
4,GGCAGAGCUCAACACAGCGUGGCAAAGUGCCGGUGGAUAGACUGCC [G30C U32G C37A],0.11
5,GGCAAAACUAAUCACAGCGUGGCAAAGUGGCUGUGGCUAGACUGCC [G5A G7A C10A A12U],0.01
6,CGCAGAGCUCAACACAGCGUGGCAAAGUGGCUGUGGCUUGACUACC [G1C A39U G44A],0.04
7,GGCAGGGCUCAACACAGCGUGGCAAAGUGGCUGUUCCUAGACUGCC [A6G G35U G36C],0.15
8,GGCAGAGCUCAAAACAGCGUGGCAAAGUGGUUGUUGCUAGACUGCA [C13A C31U G35U C46A],0.17
9,GGCAGAGCUCACCACCGCGUGGCAAAGUGCUUGUGGCUAGACUGCC [A12C A16C G30C C31U],0.02
10,UGCAGAGCUCAACACAGCGUGGCAAAGUGGCCGUCGCUAGACUGCC [G1U U32C G35C],0.02
11,GGCGGAACUGAACACAGCGUGGCAAAGUGGCUGUAGCUAGACUGCC [A4G G7A C10G G35A],0.03
12,GGCAGAGCUAAACACAGCGUGGCAAAGUAGCUGUGGCUAGACAGCC [C10A G29A U43A],0.01
13,GGCAGAGCUGAACACAGCGUGGCAAAAUGGCUGUGGCAAGACUGCC [C10G G27A U38A],0.01
14,GGCAGAGCUCAACACAGCGUAGCAAAGUUGCUGUGGCUAGAGUGCC [G21A G29U C42G],0.18
15,GGCAGAGCUCAACACAGCGUGGCAAAGUGGCUGUGGCUAGACCAGC [U43C G44A C45G],0.28
16,GGCAGAGCUAAACACAGCGUGGCAAUGUUGCUGUGGCUACACUGCC [C10A A26U G29U G40C],0.05
17,GCCAGAGAUCAACCCCGCGUGGCAAAGUGGGUGUGGCUAGACUGCC [G2C C8A A14C A16C C31G],0.06
18,GGCAGAGCUCACCACAGCGUGGCAAAUUGUCUGUGGCUAGACUGCC [A12C G27U G30U],0.08
